The data set relates to ATP. Nature of the data set: switch fluorescence ratio, 500 uM ATP over buffer (Cy3 cluster intensity, sum of 5 cycles each) (fold (ratio)); higher = stronger signal-on switching upon ATP binding; sequences stand for … in TCGTCGGCAGCGTCAGATGTGTATAAGAGACAGTTTTTTTTTTTTTTTTTTTTTTTTT…TC. Conditions: aptamer strand: ATP DNA aptamer (quencher-CACCTGGGGGAGTATTGCGGAGGAAGG + anchor), 100 nM annealed; ATP concentration: 500 uM; one replicate. In outline:
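Values give the fluorescence ratio for each switch-domain sequence, averaged from per-cluster ratios of summed target-cycle to summed buffer-cycle Cy3 intensity. The Cy3-labelled switching-strand clusters sat on a modified Illumina MiSeq flow-cell, were annealed to 100 nM quencher-labelled ATP aptamer, and were imaged in selection buffer, then after 15 min with 500 uM ATP at 22 °C. Five cycles ran with NaOH stripping and re-annealing between them, and clusters outside 100-1000 RFU were excluded.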

Values marked as one replicate rest on one cluster of the flow cell; about a third of the high ones do not repeat.
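Also: ATP exposure 15 min at 22 °C before imaging.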

Turning to CCATCGATGC, the switch fluorescence ratio was found to be 1.1.

Regarding CTGCCCTCCC, the switch fluorescence ratio stood at 1.86.

Turning to TATCCGTTGC, the switch fluorescence ratio turned out to be 1.44.

As to ATCTCAGATT, the switch fluorescence ratio amounted to 0.955.

For the sequence TTAGTTCAT, the switch fluorescence ratio worked out at 1.01.

Regarding AGACCATCAC, the switch fluorescence ratio came to 1.11.

For GCATCTCTAT, the switch fluorescence ratio is 0.959.

AGTCAGGTCA: the switch fluorescence ratio was 0.977.

In the case of CTCTGCAGGG, the switch fluorescence ratio stood at 2.3.

TCTGACTCGC: the switch fluorescence ratio came to 1.78.

On to TGAACGGGCT, for which the switch fluorescence ratio stood at 1.01.

Turning to TATGCTCTGA, the switch fluorescence ratio turned out to be 1.01.

As to GCGGCGCGAC, the switch fluorescence ratio was 1.07.

Take CGACGGAGGT: the switch fluorescence ratio came out at 1.01.

GGTCGAGTTT: the switch fluorescence ratio was found to be 0.939.

CTCCAAGCAC: the switch fluorescence ratio is 4.69.

Take TTGATTGAAC: the switch fluorescence ratio worked out at 0.975.

TTAACTCGTT: the switch fluorescence ratio is 0.981.

As for AGCAGATCCA, the switch fluorescence ratio stood at 0.947.

As for GGGGCAGCCC, the switch fluorescence ratio was determined as 1.01.

For the sequence TTAAGACTCT, the switch fluorescence ratio is 0.974.

As to GGTGATTATC, the switch fluorescence ratio stood at 0.988.

With CTGCTGCATC, the switch fluorescence ratio was 1.44.

TTAGCGCCT: the switch fluorescence ratio was found to be 1.04.

Consider GATTTTACTG, for which the switch fluorescence ratio worked out at 1.14.

For the sequence TTCAGCGA, the switch fluorescence ratio is 1.05.

On to TAACTCATTT, for which the switch fluorescence ratio came out at 0.989.

Take GAGCGCCTTC: the switch fluorescence ratio was found to be 1.03.

For AGTGATAGCA, the switch fluorescence ratio came to 1.03.

GTTGGCTAAT: the switch fluorescence ratio is 1.01.

With CAAGCCTCCC, the switch fluorescence ratio was found to be 1.96.

For the sequence CTATACTGGT, the switch fluorescence ratio came to 0.974.

For AGCATTTTGT, the switch fluorescence ratio amounted to 0.99.

CGTAGGTCCA: the switch fluorescence ratio was determined as 1.01.

Consider CGAACTCGGG, for which the switch fluorescence ratio is 1.03.

Take TTTAATTTAC: the switch fluorescence ratio was determined as 1.05.

Take GTTTAACCCT: the switch fluorescence ratio was 1.05.

Take CTAACAGCGG: the switch fluorescence ratio worked out at 1.02.

Take TGTGCTCAGC: the switch fluorescence ratio was determined as 0.992.

Consider GAACAATTTG, for which the switch fluorescence ratio is 1.01.

As to GAATCGTGGG, the switch fluorescence ratio stood at 0.96.

Regarding CCAGGGTCTC, the switch fluorescence ratio is 1.03.

For GTGATCGCTG, the switch fluorescence ratio was determined as 0.94.

In the case of AGGCCGTTAT, the switch fluorescence ratio was found to be 1.04.

On to GGACGTATGT, for which the switch fluorescence ratio turned out to be 1.05.

GCTCGCCTGT: the switch fluorescence ratio turned out to be 1.03.

Regarding TACTTGTCAT, the switch fluorescence ratio was determined as 1.03.

For the sequence GGGGCACCA, the switch fluorescence ratio was 1.06.

For the sequence TATACGGTTG, the switch fluorescence ratio came out at 0.997.

Consider GATGCGCTG, for which the switch fluorescence ratio was 1.05.

Take CCTTCTGGGA: the switch fluorescence ratio came to 1.25.

With CACATGGGCG, the switch fluorescence ratio was determined as 0.934.

For ATAGATCGCG, the switch fluorescence ratio stood at 0.992.

With TGCACATGTT, the switch fluorescence ratio amounted to 1.

On to TCAGAAGCAA, for which the switch fluorescence ratio amounted to 3.91.

Consider GTGTAAGTAA, for which the switch fluorescence ratio turned out to be 0.978.

As to CGTCGGCCCG, the switch fluorescence ratio worked out at 0.984.

On to AAGCGCCCGC, for which the switch fluorescence ratio is 0.93.

On to GCGACCACAC, for which the switch fluorescence ratio was 1.62.

Take GTCTTAGTGA: the switch fluorescence ratio is 0.944.

Turning to GACCAATCAG, the switch fluorescence ratio worked out at 0.99.

With CTTGGGGTAT, the switch fluorescence ratio worked out at 1.05.

On to ATGTCTTTCT, for which the switch fluorescence ratio stood at 1.04.

Regarding TCGTGTCCCC, the switch fluorescence ratio turned out to be 1.07.

Turning to AGAAACGGTT, the switch fluorescence ratio worked out at 1.03.

CTTCACGGTA: the switch fluorescence ratio worked out at 1.19.

As to TGCCGGCATA, the switch fluorescence ratio was found to be 1.01.

For AGAGCCCCA, the switch fluorescence ratio came out at 1.01.

Take ATACTAATCT: the switch fluorescence ratio was 1.03.

On to GGGCAGAAAC, for which the switch fluorescence ratio worked out at 1.06.

As for TATACTGAGA, the switch fluorescence ratio was found to be 1.05.

Regarding TGTGTAACTT, the switch fluorescence ratio was determined as 1.01.

TTCCCGCCCT: the switch fluorescence ratio came to 1.07.

GTTCCAACCC: the switch fluorescence ratio stood at 0.983.

AGGCGAGGAA: the switch fluorescence ratio was found to be 0.997.

Consider GAAGGTAAAC, for which the switch fluorescence ratio was found to be 1.03.

Turning to AAACGTTGAC, the switch fluorescence ratio was determined as 1.14.

Turning to GTTACCGATC, the switch fluorescence ratio worked out at 1.11.

With TGTAATGTCC, the switch fluorescence ratio worked out at 1.06.

Consider GAAGGGA, for which the switch fluorescence ratio is 1.

Regarding AACTTGGCGA, the switch fluorescence ratio was found to be 1.04.

With GTGCGTAATG, the switch fluorescence ratio amounted to 1.03.

On to GGATGCATAC, for which the switch fluorescence ratio was determined as 1.84.

Turning to GGGATTAAA, the switch fluorescence ratio turned out to be 0.974.

With TTCTATTAAC, the switch fluorescence ratio is 1.07.

For AGACAGAAAC, the switch fluorescence ratio was 1.06.

In the case of ACCAGTCTCA, the switch fluorescence ratio stood at 1.

With TATGAATCGG, the switch fluorescence ratio stood at 0.927.

ACTGTTGAAC: the switch fluorescence ratio is 1.04.

On to ATGCCTGGTT, for which the switch fluorescence ratio amounted to 0.986.

For GGTGGCTGCG, the switch fluorescence ratio stood at 0.996.

TGATGTGGAA: the switch fluorescence ratio was 1.01.

Turning to TATGGACTTG, the switch fluorescence ratio is 1.06.

With TTCAACAAGT, the switch fluorescence ratio was determined as 0.99.

In the case of AGAGGTTTT, the switch fluorescence ratio worked out at 0.969.

With CATATCCTTG, the switch fluorescence ratio is 0.974.

Take TCATAAGGTT: the switch fluorescence ratio was 1.46.

Consider AGAATCAAGT, for which the switch fluorescence ratio was determined as 1.01.

AGGGTGGTCG: the switch fluorescence ratio amounted to 1.08.

Turning to GGGACCTGCG, the switch fluorescence ratio was found to be 1.02.

With TGTTGATGGC, the switch fluorescence ratio is 1.

For CGCATTTATG, the switch fluorescence ratio was 0.985.

With ACAATCGCTG, the switch fluorescence ratio came to 1.01.

Regarding TGGCAATATC, the switch fluorescence ratio was found to be 3.69.

For the sequence GCTTCGGCCC, the switch fluorescence ratio came to 1.05.

For GAGCTTCGG, the switch fluorescence ratio turned out to be 1.03.

With ATAATTACGG, the switch fluorescence ratio turned out to be 1.04.

Take ATGGATCGG: the switch fluorescence ratio was 0.98.

As for GTGAACTGGG, the switch fluorescence ratio is 1.04.

As for GCGAGAAGGG, the switch fluorescence ratio was found to be 1.03.

ATCAGTATAA: the switch fluorescence ratio was determined as 1.01.

TTACACGTCG: the switch fluorescence ratio is 1.07.

As for TCATTGATGG, the switch fluorescence ratio is 0.974.

Take TAATAAGTCT: the switch fluorescence ratio is 1.05.

As to GGTAGGTTTG, the switch fluorescence ratio was 0.978.

TGTGGTCGTA: the switch fluorescence ratio was found to be 0.989.

TGTATGTTGT: the switch fluorescence ratio was found to be 0.977.

For GGACTATCCG, the switch fluorescence ratio worked out at 1.02.

Regarding ATACGTTTAA, the switch fluorescence ratio was found to be 1.11.

Regarding ACTCTCGACT, the switch fluorescence ratio worked out at 1.04.

The record behind these values is the supplement of paper PMC10126150.
